B1: ch1805-D (other)
heavy: HGEGTFTSDVSSYLEEEAAKEFVAWLVKGGGGGGGSGGGGSGGGGSEVQLQQSGPELVKPGASVKIPCKTSGYTFTDYNMDWVKQSHGRSLEWIGSIDPDNGGTIYNQKFKGKATLTVDKSSSTAYMELRSLTSEDTAVYYCTRDYYGSSSWFAYWGQGTLVTVSAASTKGPSVFPLAPCSRSTSESTAALGCLVKDYFPEPVTVSWNSGALTSGVHTFPAVLQSSGLYSLSSVVTVPSSSLGTKTYTCNVDHKPSNTKVDKRV[human IgG4 Fc with S228P F234A L235A (EU numbers) left out]
light: DVVMTQSPATLSVTPGDRVSLSCRASQSISDYLHWYQQKSHESPRLLIKYASQSISGIPSRFSGSGSGSDFTLSINSVEPEDVGVYYCQNGHSFPYTFGGGTKLEIKRTVAAPSVFIFPPSDEQLKSGTASVVCLLNNFYPREAKVQWKVDNALQSGNSQESVTEQDSKDSTYSLSSTLTLSKADYEKHKVYACEVTHQGLSSPVTKSFNRGEC
B2: ch1808-D (other)
heavy: HGEGTFTSDVSSYLEEEAAKEFVAWLVKGGGGGGGSGGGGSGGGGSQVQLQQSGAELARPGASVKLSCKASGDTFTTNGISWVKQRIGQGLEWIGEIYPRSGNTYYNENFKGKATLTADKSSTTAYMELRRLTSEDSAVYFCARSITSVIGADYFDYWGQGTTLTVSSASTKGPSVFPLAPCSRSTSESTAALGCLVKDYFPEPVTVSWNSGALTSGVHTFPAVLQSSGLYSLSSVVTVPSSSLGTKTYTCNVDHKPSNTKVDKRV[human IgG4 Fc with S228P F234A L235A (EU numbers) left out]
light: DIQMTQTTSSLSASLGDRVTISCRASQDISNYLNWYQKKPDGTVKLLIYYSSTLHSGVPSRFSGSGSGTDYSLTISNLEQEDIATYFCQQGNTFPWTFGGGTKLEIKRTVAAPSVFIFPPSDEQLKSGTASVVCLLNNFYPREAKVQWKVDNALQSGNSQESVTEQDSKDSTYSLSSTLTLSKADYEKHKVYACEVTHQGLSSPVTKSFNRGEC
B3: ch1817-D (other)
heavy: HGEGTFTSDVSSYLEEEAAKEFVAWLVKGGGGGGGSGGGGSGGGGSEVQLVESGGDLVQPGRSMKLSCAASGFTFSNYYMAWVRQAPTKGLEWVASISTGGVNTYYRDSVKGRFTISRDNAKNNLYLQMDSLRSEETATYYCARHTTADYFYGIYFALDAWGQGTSVTVSSASTKGPSVFPLAPCSRSTSESTAALGCLVKDYFPEPVTVSWNSGALTSGVHTFPAVLQSSGLYSLSSVVTVPSSSLGTKTYTCNVDHKPSNTKVDKRV[human IgG4 Fc with S228P F234A L235A (EU numbers) left out]
light: QFTLTQPKSVSGSLRSTITIPCERSSGDIGDSYVNWYQQHLGRPPLNVIYADVQRPSEVSDRFSGSIDSSSNSASLTITNLQMDDEADYFCQSYDTNIDIIFGGGTKLTVLRTVAAPSVFIFPPSDEQLKSGTASVVCLLNNFYPREAKVQWKVDNALQSGNSQESVTEQDSKDSTYSLSSTLTLSKADYEKHKVYACEVTHQGLSSPVTKSFNRGEC

target: human GLP-1R (human, UniProt P43220 24-463); assay: cell-based or functional assay

Row | Binder | EC50 | Emax %
1 | B1 | 0.11 nM | 108%
2 | B2 | 0.14 nM | 107%
3 | B3 | 0.3 nM | 106%
